# Whole data set: some 33,000 sequences, median “E-score (-0.5 to 0.5)” near -0.054, cut for the highest 2% near 0.39. The list shows a part of the results.
# Molecular target: Ylr278c (UniProt Q05854)
# Assay: PBM E-score (8-mer binding enrichment) (E-score (-0.5 to 0.5)); higher = stronger / more preferred TF binding; most listed sequences are background and not binding sites
# Details: protein concentration: 200 nM; construct: GST-DNA-binding domain
# Summary of the method: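 The E-score, a modified Wilcoxon-Mann-Whitney statistic, was computed by the Universal PBM Analysis Suite for every ungapped eight-base word pooled with its reverse complement. Scans behind it were normalised with masliner after bound GST-tagged yeast transcription factors were detected with fluorescent anti-GST. The proteins, at about 100-200 nM, had been applied to universal all-10-mer Agilent arrays made double-stranded by primer extension.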
row,Sequence,PBM E-score
1,TCGTCTAA,-0.181
2,CCGGGATC,0.411
3,AGCCCGAT,0.176
4,TGTCCCAA,-0.11
5,ATCGTGGG,-0.0222
6,ATAGTCTG,-0.303
7,CGTATCTC,0.148
8,AGCGGTAA,0.154
9,ATAGGCAC,-0.239
10,AGTTAGCA,-0.14
11,ACTATACG,-0.0768
12,ACCAGAGG,-0.304
13,ACAATAGG,0.0339
14,AATAAAGA,0.00576
15,AATGCATA,-0.0812
16,CACAGCCC,-0.176
17,GTGAAGGA,-0.103
18,CAAACCGA,-0.0941
19,ATGAACAC,-0.108
20,GCAAAGAA,0.041
21,AAAAATTT,-0.00393
22,ACGAAAAT,-0.0863
23,GCTTCGCA,-0.0784
24,AACAGGGG,-0.141
25,AGGGCAAG,-0.0129

row,Sequence,PBM E-score
1,ATACGATG,-0.0393
2,GAGCGAGC,-0.0295
3,ACGTATGG,-0.163
4,ACTTCAAG,-0.123
5,ACTGTCTA,-0.169
6,ACCGTCTC,-0.0788
7,CCGTTGAC,0.0534
8,ACCGACCA,0.0285
9,ATCAAGGA,-0.164
10,AAAGATCA,-0.115
11,ACACCTAC,-0.00022
12,ATGTAAAA,-0.0769
13,CCTTTCCC,0.213
14,CCATCTCG,0.0354
15,CTGGTGTA,-0.232
16,ACGATTGG,-0.0687
17,AGCGGTTA,-0.104
18,AGGGAGCG,-0.14
19,ATGCCTTC,-0.247
20,ATATTCAT,-0.194
21,CATACCGG,0.288
22,AAAATCAG,-0.0881
23,CAAGGTAA,0.0397
24,ATGGATTG,-0.0567
25,CTCTTATC,0.065

row,Sequence,PBM E-score
1,CTTATCAA,-0.104
2,GCTCTACA,-0.0954
3,AGTACTAC,-0.212
4,AGAGAAGC,-0.0355
5,GGCTGGCA,-0.188
6,AACCATCA,-0.0641
7,ATTCATAC,0.0829
8,GATTTTAA,0.0613
9,ACAACAGG,-0.123
10,CTAAAAAA,0.101
11,ATGAGTGC,-0.0761
12,ATGCAAAT,-0.0636
13,GTCGGATA,0.312
14,ACTATATC,-0.0833
15,CATAGCTA,-0.168
16,ATGGAGAG,-0.259
17,CGAGGCCA,-0.0935
18,AGGCGACG,0.0174
19,GGGGACCC,-0.0138
20,AATCTCCT,0.0721
21,CCCGTGAC,0.112
22,TCAGTCAA,-0.219
23,GATTGCGC,0.186
24,CAGGGCGC,0.0102
25,CGCGGAAC,0.368

row,Sequence,PBM E-score
1,GGCGACAA,-0.0481
2,ACAGCCAA,-0.192
3,ACAAGGGC,-0.143
4,AGTGTAAG,-0.13
5,CCCTAAGG,-0.151
6,AGCGGAGA,0.394
7,ATTTTGGC,0.087
8,ACTTTAAC,-0.262
9,ACTGGTTA,-0.0127
10,ACAGGCCA,-0.0991
11,ATATCCCA,0.176
12,CAGTTGTA,-0.0678
13,CGTCAATC,-0.157
14,AGAAGTAG,-0.241
15,TACCCCGA,0.411
16,GTACAAAA,-0.0388
17,ACTCAAGG,0.0273
18,ATTTCACC,-0.0343
19,CAACGTTC,0.0169
20,CTTTCCTA,-0.185
21,AGGTTGGA,0.0655
22,ATCGTGTG,-0.00379
23,CTGTTGAA,0.018
24,GCCTTTCC,0.156
25,GCATATCA,0.0798

row,Sequence,PBM E-score
1,GCGTTAAA,0.0403
2,AAACCAAT,0.0849
3,GGAAACCC,0.192
4,AGCAGTAT,-0.186
5,AACGTATT,-0.055
6,GGGGAGAC,0.0986
7,CAGCTAAA,-0.174
8,CAACATGA,-0.0341
9,CTTCACGC,0.1
10,CACAGTGC,0.00588
11,CTCCCGAA,0.148
12,ATCCACTA,-0.0652
13,AACTCAGA,-0.213
14,AAAATGCA,-0.112
15,CCTTTCCG,0.347
16,AACGTGAT,-0.201
17,CCGATTGA,0.165
18,CCATGGCG,0.0774
19,AAATTTTA,-0.232
20,GCGCCACA,-0.00652
21,AGACGCCC,0.164
22,CCAAAATC,0.123
23,ATGTGCCA,-0.318
24,CCTATCCC,0.0733
25,AATTACAG,0.0452

row,Sequence,PBM E-score
1,CTTAAAGC,0.00637
2,CCACTGGA,-0.0942
3,ATCCTGAG,-0.166
4,CCTCAACA,-0.0486
5,CGCTCAAG,0.0706
6,TCCCAACA,-0.0167
7,CGAAGCAA,-0.131
8,ACCCAGTC,-0.0927
9,CACACTGC,0.0437
10,CAGTTCCA,-0.116
11,AGTCCTAT,-0.0902
12,CGAACCAA,0.0389
13,AAAGTTCG,0.118
14,GGACTTAA,0.27
15,AAAATCAC,0.00397
16,CCCGCGAG,0.309
17,AAGGTGAA,0.00686
18,AGTCAAGA,-0.234
19,ATTTGCTA,-0.111
20,AAAATTTT,0.084
21,AACCGTAG,-0.146
22,GTAGAAAC,-0.0106
23,CGAAAAAA,0.194
24,ATCCCAGC,-0.138
25,CTTACCTC,-0.0434

row,Sequence,PBM E-score
1,ACGCTGCG,0.0169
2,AAGTAGTC,-0.167
3,CAAGGCCG,0.207
4,TCAGAGGA,-0.187
5,CGCTGCAG,0.0673
6,AGCCACTC,-0.2
7,GGCATAGA,0.0356
8,GATGTTAC,-0.116
9,CGTCCCTC,-0.143
10,CCGTTTCC,0.262
11,AAGTGGCT,-0.0911
12,GCAGACTA,-0.226
13,CATGTTCG,-0.154
14,GGGATGGA,0.102
15,TAACGTGA,-0.289
16,CCGAAAGC,0.258
17,CAAGCCGC,-0.0458
18,ATTGCATG,-0.0386
19,GCTTTGTA,-0.0887
20,CCCTGCCC,-0.205
21,AGTAAATG,0.0709
22,AACGATCC,-0.0549

# From the supplement of paper PMC3334620
